Reference: the supplement of paper PMC8728848
The other results are listed elsewhere or left out.

Columns and labels:
Experiment in all cases: glycan array binding signal (z-score within array); higher = stronger binding
Settings in all cases: glycan notation: IUPAC condensed, linker removed
[1] = biological target: Kdn(a2-3)Gal(b1-4)GlcNAc
Method in brief: (§1)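 Glycan array data came from 3228 arrays in the Consortium for Functional Glycomics database, and only arrays with an available protein sequence were kept. Glycan names were put into IUPAC-condensed notation, and columns mapping to the same glycan were averaged. The binding signal is a within-array Z-score, averaged across arrays of one protein sequence run at different concentrations or buffers and across linkers. A negative Z-score can be read as non-binding.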

[2] = biological target: Man(a1-2)Man(a1-2)Man(a1-3)Man
Method in brief: as §1

[3] = biological target: Man(a1-2)Man(a1-2)Man(a1-3)[Man(a1-2)Man(a1-3)[Man(a1-2)Man(a1-6)]Man(a1-6)]Man(b1-4)GlcNAc(b1-4)GlcNAc
Method in brief: as §1

[4] = biological target: Man(a1-2)Man(a1-2)Man(a1-3)[Man(a1-2)Man(a1-6)[Man(a1-3)]Man(a1-6)]Man(b1-4)GlcNAc(b1-4)GlcNAc
Method in brief: as §1

[5] = biological target: Man(a1-2)Man(a1-2)Man(a1-6)[Man(a1-3)]Man
Method in brief: as §1

[6] = biological target: Man(a1-2)Man(a1-3)Man
Method in brief: as §1

[7] = biological target: Man(a1-2)Man(a1-3)[Man(a1-2)Man(a1-6)]Man
Method in brief: as §1

[8] = biological target: Man(a1-2)Man(a1-3)[Man(a1-3)[Man(a1-6)]Man(a1-6)]Man(b1-4)GlcNAc(b1-4)GlcNAc
Method in brief: as §1

[9] = biological target: Man(a1-2)Man(a1-3)[Man(a1-6)]Man(a1-6)[Man(a1-2)Man(a1-3)]Man(b1-4)GlcNAc(b1-4)GlcNAc
Method in brief: as §1

[10] = biological target: Man(a1-3)[Man(a1-6)]Man
Method in brief: as §1

[11] = biological target: Man(a1-3)[Man(a1-6)]Man(a1-6)[Man(a1-3)]Man(b1-4)GlcNAc(b1-4)GlcNAc
Method in brief: as §1

[12] = biological target: Man(a1-3)[Man(a1-6)]Man(b1-4)GlcNAc(b1-4)GlcNAc
Method in brief: as §1

[13] = biological target: Man(b1-4)GlcNAc
Method in brief: as §1

[14] = biological target: Neu5Ac(a2-3)Gal
Method in brief: as §1

[15] = biological target: Neu5Ac(a2-3)Gal(b1-3)GalNAc
Method in brief: as §1

[16] = biological target: Neu5Ac(a2-3)Gal(b1-3)GalNAc(b1-3)Gal(a1-4)Gal(b1-4)Glc
Method in brief: as §1

[17] = biological target: Neu5Ac(a2-3)Gal(b1-3)GalNAc(b1-4)[Neu5Ac(a2-3)]Gal(b1-4)Glc
Method in brief: as §1

[18] = biological target: Neu5Ac(a2-3)Gal(b1-3)GalNAc6S
Method in brief: as §1

[19] = biological target: Neu5Ac(a2-3)Gal(b1-3)GlcNAc
Method in brief: as §1

[20] = biological target: Neu5Ac(a2-3)Gal(b1-3)GlcNAc(b1-3)Gal(b1-4)GlcNAc
Method in brief: as §1

[21] = biological target: Neu5Ac(a2-3)Gal(b1-3)GlcNAc6S
Method in brief: as §1

[22] = biological target: Neu5Ac(a2-3)Gal(b1-3)[Fuc(a1-4)]GlcNAc
Method in brief: as §1

[23] = biological target: Neu5Ac(a2-3)Gal(b1-3)[Fuc(a1-4)]GlcNAc(b1-3)Gal(b1-4)[Fuc(a1-3)]GlcNAc
Method in brief: as §1

[24] = biological target: Neu5Ac(a2-3)Gal(b1-3)[Neu5Ac(a2-3)Gal(b1-4)]GlcNAc
Method in brief: as §1

[25] = biological target: Neu5Ac(a2-3)Gal(b1-3)[Neu5Ac(a2-6)]GalNAc
Method in brief: as §1

[26] = biological target: Neu5Ac(a2-3)Gal(b1-4)Glc
Method in brief: as §1

[27] = biological target: Neu5Ac(a2-3)Gal(b1-4)GlcNAc
Method in brief: as §1

[28] = biological target: Neu5Ac(a2-3)Gal(b1-4)GlcNAc(b1-3)Gal(b1-4)GlcNAc
Method in brief: as §1

[29] = biological target: Neu5Ac(a2-3)Gal(b1-4)GlcNAc(b1-3)Gal(b1-4)GlcNAc(b1-3)Gal(b1-4)GlcNAc
Method in brief: as §1

[30] = biological target: Neu5Ac(a2-3)Gal(b1-4)GlcNAc(b1-3)Gal(b1-4)[Fuc(a1-3)]GlcNAc
Method in brief: as §1

[31] = biological target: Neu5Ac(a2-3)Gal(b1-4)GlcNAc6S
Method in brief: as §1

[32] = biological target: Neu5Ac(a2-3)Gal(b1-4)[Fuc(a1-3)]GlcNAc
Method in brief: as §1

[33] = biological target: Neu5Ac(a2-3)Gal(b1-4)[Fuc(a1-3)]GlcNAc(b1-3)Gal
Method in brief: as §1

[34] = biological target: Neu5Ac(a2-3)Gal(b1-4)[Fuc(a1-3)]GlcNAc(b1-3)Gal(b1-4)GlcNAc
Method in brief: as §1

[35] = biological target: Neu5Ac(a2-3)Gal(b1-4)[Fuc(a1-3)]GlcNAc(b1-3)Gal(b1-4)[Fuc(a1-3)]GlcNAc(b1-3)Gal(b1-4)[Fuc(a1-3)]GlcNAc
Method in brief: as §1

[36] = biological target: Neu5Ac(a2-3)Gal(b1-4)[Fuc(a1-3)]GlcNAc6S
Method in brief: as §1

[37] = biological target: Neu5Ac(a2-3)Gal6S(b1-4)GlcNAc
Method in brief: as §1

[38] = biological target: Neu5Ac(a2-3)Gal6S(b1-4)[Fuc(a1-3)]GlcNAc
Method in brief: as §1

[39] = biological target: Neu5Ac(a2-3)GalNAc
Method in brief: as §1

[40] = biological target: Neu5Ac(a2-3)GalNAc(b1-4)GlcNAc
Method in brief: as §1

[41] = biological target: Neu5Ac(a2-3)[GalNAc(b1-4)]Gal(b1-4)Glc
Method in brief: as §1

[42] = biological target: Neu5Ac(a2-3)[GalNAc(b1-4)]Gal(b1-4)GlcNAc
Method in brief: as §1

[43] = biological target: Neu5Ac(a2-3)[Neu5Ac(a2-6)]GalNAc
Method in brief: as §1

[44] = biological target: Neu5Ac(a2-6)Gal(b1-4)GlcNAc
Method in brief: as §1

[45] = biological target: Neu5Ac(a2-6)Gal(b1-4)GlcNAc(b1-2)Man(a1-3)[Neu5Ac(a2-6)Gal(b1-4)GlcNAc(b1-2)Man(a1-6)]Man(b1-4)GlcNAc(b1-4)GlcNAc
Method in brief: as §1

[46] = biological target: Neu5Ac(a2-6)Gal(b1-4)GlcNAc(b1-3)Gal(b1-4)GlcNAc
Method in brief: as §1

[47] = biological target: Neu5Ac(a2-6)Gal(b1-4)GlcNAc(b1-3)Gal(b1-4)[Fuc(a1-3)]GlcNAc(b1-3)Gal(b1-4)[Fuc(a1-3)]GlcNAc
Method in brief: as §1

[48] = biological target: Neu5Ac(a2-6)Gal(b1-4)GlcNAc6S
Method in brief: as §1

[49] = biological target: Neu5Ac(a2-6)GalNAc
Method in brief: as §1

[50] = biological target: Neu5Ac(a2-6)GalNAc(b1-4)GlcNAc
Method in brief: as §1

[51] = biological target: Neu5Ac(a2-8)Neu5Ac
Method in brief: as §1

[52] = biological target: Neu5Ac(a2-8)Neu5Ac(a2-3)Gal(b1-4)Glc
Method in brief: as §1

[53] = biological target: Neu5Ac(a2-8)Neu5Ac(a2-3)[GalNAc(b1-4)]Gal(b1-4)Glc
Method in brief: as §1

[54] = biological target: Neu5Ac(a2-8)Neu5Ac(a2-8)Neu5Ac
Method in brief: as §1

[55] = biological target: Neu5Ac(a2-8)Neu5Ac(a2-8)Neu5Ac(a2-3)Gal(b1-4)Glc
Method in brief: as §1

[56] = biological target: Neu5Ac(a2-8)Neu5Ac(a2-8)Neu5Ac(a2-3)[GalNAc(b1-4)]Gal(b1-4)Glc
Method in brief: as §1

[57] = biological target: Neu5Ac(a2-8)Neu5Ac(a2-8)Neu5Ac(a2-8)Neu5Ac(a2-3)[GalNAc(b1-4)]Gal(b1-4)Glc
Method in brief: as §1

[58] = biological target: Neu5Ac9Ac(a2-6)Gal(b1-4)GlcNAc
Method in brief: as §1

[59] = biological target: Neu5Gc(a2-3)Gal(b1-3)GlcNAc
Method in brief: as §1

[60] = biological target: Neu5Gc(a2-3)Gal(b1-3)[Fuc(a1-4)]GlcNAc
Method in brief: as §1

[61] = biological target: Neu5Gc(a2-3)Gal(b1-4)Glc
Method in brief: as §1

[62] = biological target: Neu5Gc(a2-3)Gal(b1-4)GlcNAc
Method in brief: as §1

[63] = biological target: Neu5Gc(a2-3)Gal(b1-4)[Fuc(a1-4)]GlcNAc
Method in brief: as §1

[64] = biological target: Neu5Gc(a2-6)Gal(b1-4)GlcNAc
Method in brief: as §1

[65] = biological target: Neu5Gc(a2-6)GalNAc
Method in brief: as §1

B1: RNase 1 (Bos taurus), P61823 (protein)
chain: MALKSLVLLSLLVLVLLLVRVQPSLGKETAAAKFERQHMDSSTSAASSSNYCNQMMKSRNLTKDRCKPVNTFVHESLADVQAVCSQKNVACKNGQTNCYQSYSTMSITDCRETGSSKYPNCAYKTTQANKHIIVACEGNPYVPVHFDASV
- glycan array binding signal (z-score) [1]: -0.237
- glycan array binding signal (z-score) [2]: -0.204
- glycan array binding signal (z-score) [3]: -0.208
- glycan array binding signal (z-score) [4]: -0.153
- glycan array binding signal (z-score) [5]: -0.001
- glycan array binding signal (z-score) [6]: -0.174
- glycan array binding signal (z-score) [7]: -0.205
- glycan array binding signal (z-score) [8]: -0.216
- glycan array binding signal (z-score) [9]: -0.132
- glycan array binding signal (z-score) [10]: -0.147
- glycan array binding signal (z-score) [11]: -0.171
- glycan array binding signal (z-score) [12]: -0.179
- glycan array binding signal (z-score) [13]: -0.209
- glycan array binding signal (z-score) [14]: -0.215
- glycan array binding signal (z-score) [15]: -0.23
- glycan array binding signal (z-score) [16]: 0.615
- glycan array binding signal (z-score) [17]: -0.179
- glycan array binding signal (z-score) [18]: -0.195
- glycan array binding signal (z-score) [19]: -0.174
- glycan array binding signal (z-score) [20]: -0.164
- glycan array binding signal (z-score) [21]: -0.204
- glycan array binding signal (z-score) [22]: -0.235
- glycan array binding signal (z-score) [23]: 0.048
- glycan array binding signal (z-score) [24]: 0.146
- glycan array binding signal (z-score) [25]: -0.21
- glycan array binding signal (z-score) [26]: -0.225
- glycan array binding signal (z-score) [27]: -0.203
- glycan array binding signal (z-score) [28]: -0.24
- glycan array binding signal (z-score) [29]: -0.186
- glycan array binding signal (z-score) [30]: -0.22
- glycan array binding signal (z-score) [31]: -0.133
- glycan array binding signal (z-score) [32]: -0.223
- glycan array binding signal (z-score) [33]: -0.22
- glycan array binding signal (z-score) [34]: 0.086
- glycan array binding signal (z-score) [35]: -0.187
- glycan array binding signal (z-score) [36]: -0.234
- glycan array binding signal (z-score) [37]: -0.171
- glycan array binding signal (z-score) [38]: -0.207
- glycan array binding signal (z-score) [39]: -0.24
- glycan array binding signal (z-score) [40]: -0.237
- glycan array binding signal (z-score) [41]: -0.237
- glycan array binding signal (z-score) [42]: -0.14
- glycan array binding signal (z-score) [43]: -0.21
- glycan array binding signal (z-score) [44]: -0.188
- glycan array binding signal (z-score) [45]: -0.13
- glycan array binding signal (z-score) [46]: -0.25
- glycan array binding signal (z-score) [47]: -0.214
- glycan array binding signal (z-score) [48]: -0.212
- glycan array binding signal (z-score) [49]: -0.216
- glycan array binding signal (z-score) [50]: -0.214
- glycan array binding signal (z-score) [51]: -0.22
- glycan array binding signal (z-score) [52]: -0.202
- glycan array binding signal (z-score) [53]: -0.226
- glycan array binding signal (z-score) [54]: -0.221
- glycan array binding signal (z-score) [55]: -0.206
- glycan array binding signal (z-score) [56]: -0.187
- glycan array binding signal (z-score) [57]: -0.221
- glycan array binding signal (z-score) [58]: 0.183
- glycan array binding signal (z-score) [59]: -0.222
- glycan array binding signal (z-score) [60]: -0.233
- glycan array binding signal (z-score) [61]: -0.134
- glycan array binding signal (z-score) [62]: -0.226
- glycan array binding signal (z-score) [63]: -0.221
- glycan array binding signal (z-score) [64]: -0.201
- glycan array binding signal (z-score) [65]: -0.197
